Source: US7473708B2, “Agents with leukotriene B4-like antiviral (enveloped RNA) activities” (priority 1996, dated 2009)

Test system: HSV-1
Assay: Synthesis of HSV-1 particles in Vero cells
Conditions: 100 nM LTB4, five days

Q: CCCCC/C=C\C[C@@H](O)/C=C/C=C/C=C\[C@@H](O)CCCC(=O)O [LTB4, 5S,12R-dihydroxy-6,8,10,14 (Z,E,E,Z)-eicosatetraenoic acid] was tested. Which “inhibition of synthesis of HSV-1 particles (decrease of HSV-1 antigen positive Vero cells)” value did it give?
A: 70%
